Assay results: the supplement of paper PMC10126150
Sequences with one replicate were seen in a single cluster, so their values are uncertain.

System: ATP
Test: switch fluorescence ratio, 500 uM ATP over buffer (Cy3 cluster intensity, sum of 5 cycles each) (fold (ratio)); higher = stronger signal-on switching upon ATP binding; sequences stand for … in TCGTCGGCAGCGTCAGATGTGTATAAGAGACAGTTTTTTTTTTTTTTTTTTTTTTTTT…TC
Conditions: aptamer strand: ATP DNA aptamer (quencher-CACCTGGGGGAGTATTGCGGAGGAAGG + anchor), 100 nM annealed; ATP concentration: 500 uM; one replicate
How it was run: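 Cy3-labelled switching-strand clusters on a modified Illumina MiSeq flow-cell were annealed to 100 nM quencher-labelled ATP aptamer, imaged in selection buffer, then imaged after 15 min with 500 uM ATP at 22 °C. Five buffer/ATP cycles ran, with NaOH stripping and re-annealing between them. The fluorescence ratio is summed target-cycle over summed buffer-cycle Cy3 intensity per cluster, averaged per switch-domain sequence. Clusters outside 100-1000 RFU were excluded.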
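Further: ATP exposure 15 min at 22 °C before imaging.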

Row | Sequence | switch fluorescence ratio
1 | TCGAAGGGAT | 1.01
2 | TCGAATGACT | 1.02
3 | TCGAATGCGT | 1
4 | TCGACCTCTA | 1.08
5 | TCGACCTGAA | 1.35
6 | TCGACGGCAC | 3.13
7 | TCGACGGGAA | 1.28
8 | TCGAGAGACA | 1
9 | TCGAGATCAC | 1.01
10 | TCGAGATTGA | 0.945
11 | TCGAGCAAAG | 2.66
12 | TCGAGCGAGC | 1.03
13 | TCGAGCTTCT | 1.02
14 | TCGAGGCTAT | 4.57
15 | TCGAGGGCAC | 0.987
16 | TCGAGGGCCT | 1.01
17 | TCGAGGTGCG | 1.08
18 | TCGAGTATAG | 0.963
19 | TCGAGTGACT | 0.978
20 | TCGAGTTCG | 0.991
21 | TCGATAAGTC | 0.991
22 | TCGATAGTCC | 1.04
23 | TCGATAGTG | 0.95
24 | TCGATATTAC | 1.39
25 | TCGATATTGT | 0.965
26 | TCGATCAAAA | 1.03

Row | Sequence | switch fluorescence ratio
27 | TCGATGACTA | 0.995
28 | TCGATGTAGA | 1.01
29 | TCGATGTCAT | 1.02
30 | TCGATTATGG | 0.98
31 | TCGATTGTGA | 0.987
32 | TCGATTTAG | 1
33 | TCGATTTGCA | 0.973
34 | TCGCAAAAGA | 3.67
35 | TCGCAATCCG | 1.95
36 | TCGCACACCT | 1.43
37 | TCGCACATTT | 1.1
38 | TCGCACGTTG | 1.06
39 | TCGCACTGTA | 0.986
40 | TCGCACTTTA | 1.07
41 | TCGCAGTCGT | 1.04
42 | TCGCATACAA | 2.01
43 | TCGCATATCT | 3.02
44 | TCGCATTATA | 1.53
45 | TCGCCAAGCC | 1.63
46 | TCGCCCCGG | 1.16
47 | TCGCCCGGGA | 1.03
48 | TCGCCTGACG | 1.06
49 | TCGCGGATGG | 1.01
50 | TCGCGGGTTA | 1.01
51 | TCGCGTGGGA | 1.04
52 | TCGCGTTATA | 0.986

Row | Sequence | switch fluorescence ratio
53 | TCGCTAGACG | 1.09
54 | TCGCTAGGGA | 0.96
55 | TCGCTCGACT | 1.12
56 | TCGCTCGCGT | 1.06
57 | TCGCTCTCAA | 1.31
58 | TCGCTGAACC | 1.43
59 | TCGCTTGGC | 1.05
60 | TCGCTTGGCG | 1.02
61 | TCGCTTTTAT | 1.08
62 | TCGGAATAGG | 1.06
63 | TCGGACCGTT | 0.967
64 | TCGGACTGGT | 0.987
65 | TCGGACTGTC | 0.976
66 | TCGGAGATCA | 1.02
67 | TCGGAGCGGT | 3.21
68 | TCGGCAACGG | 1.02
69 | TCGGCAAGTA | 1.02
70 | TCGGCAGTCC | 1.17
71 | TCGGCCATGA | 1.02
72 | TCGGCCCGCG | 1.04
73 | TCGGCGAGCT | 0.967
74 | TCGGCGGCGC | 1.01
75 | TCGGCGTCCC | 1.08
76 | TCGGGAGG | 1.01
77 | TCGGGATCAC | 1.04
78 | TCGGGCGGTA | 1.04

Row | Sequence | switch fluorescence ratio
79 | TCGGGGCGCA | 0.956
80 | TCGGGGGAAC | 1.18
81 | TCGGGGGCTA | 0.981
82 | TCGGGGTACC | 1.01
83 | TCGGGGTCGA | 1.05
84 | TCGGGGTCT | 1.03
85 | TCGGGGTTGA | 1.03
86 | TCGGTAACCT | 1.49
87 | TCGGTAATGG | 1.12
88 | TCGGTATCTC | 1.02
89 | TCGGTCACAA | 1.02
90 | TCGGTCGCCC | 0.998
91 | TCGGTCGCCG | 0.989
92 | TCGGTCTCTG | 0.953
93 | TCGGTTAGAC | 1.07
94 | TCGGTTCAAC | 0.989
95 | TCGGTTCGAC | 1.03
96 | TCGGTTGATT | 1
97 | TCGGTTGCCT | 0.994
98 | TCGGTTGCGG | 0.965
99 | TCGGTTTTCC | 1.01
100 | TCGTAAAAAG | 1.04
101 | TCGTAACCTT | 1.55
